Assay results: paper PMC9845754
These are yes or no findings as the source states them, for the method shown. For some of these results: Binding seen in cells or lysates may run through a third protein. Some results given as binding are weak or reduced against the parent protein; the word gives no strength. Sequences can lack the tags named with a protein.

The chains behind the UniProt entries cited, without tags or fusion partners.
UniProt O82481: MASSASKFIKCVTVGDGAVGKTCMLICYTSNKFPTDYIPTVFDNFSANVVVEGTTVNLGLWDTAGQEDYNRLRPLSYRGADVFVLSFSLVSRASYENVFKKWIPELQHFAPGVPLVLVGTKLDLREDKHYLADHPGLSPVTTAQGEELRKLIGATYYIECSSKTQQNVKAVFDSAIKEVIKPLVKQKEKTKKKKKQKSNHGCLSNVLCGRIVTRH
UniProt Q38919: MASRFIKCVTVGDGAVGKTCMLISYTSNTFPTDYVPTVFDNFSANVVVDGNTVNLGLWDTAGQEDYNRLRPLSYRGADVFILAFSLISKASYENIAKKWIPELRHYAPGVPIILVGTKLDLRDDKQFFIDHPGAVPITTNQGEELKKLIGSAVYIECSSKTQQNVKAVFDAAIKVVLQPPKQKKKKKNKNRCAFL
UniProt Q38937: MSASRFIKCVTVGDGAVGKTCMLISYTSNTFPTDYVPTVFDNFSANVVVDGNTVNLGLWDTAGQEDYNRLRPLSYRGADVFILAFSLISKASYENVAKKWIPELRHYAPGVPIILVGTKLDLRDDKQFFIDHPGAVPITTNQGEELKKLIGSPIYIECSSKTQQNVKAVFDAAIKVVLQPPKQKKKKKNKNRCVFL
UniProt O82480: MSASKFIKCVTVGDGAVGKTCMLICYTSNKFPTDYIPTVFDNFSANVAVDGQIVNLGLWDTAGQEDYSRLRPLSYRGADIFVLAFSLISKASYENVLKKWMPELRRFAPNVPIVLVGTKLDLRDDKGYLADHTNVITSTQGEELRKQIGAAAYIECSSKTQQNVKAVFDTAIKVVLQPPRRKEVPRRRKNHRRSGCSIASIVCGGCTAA

T1: ICR5-YC (interactor of constitutively active ROP 5 fused to the C-terminal half of YFP) (Arabidopsis) (UniProt Q8VYU8)
T1 sequence: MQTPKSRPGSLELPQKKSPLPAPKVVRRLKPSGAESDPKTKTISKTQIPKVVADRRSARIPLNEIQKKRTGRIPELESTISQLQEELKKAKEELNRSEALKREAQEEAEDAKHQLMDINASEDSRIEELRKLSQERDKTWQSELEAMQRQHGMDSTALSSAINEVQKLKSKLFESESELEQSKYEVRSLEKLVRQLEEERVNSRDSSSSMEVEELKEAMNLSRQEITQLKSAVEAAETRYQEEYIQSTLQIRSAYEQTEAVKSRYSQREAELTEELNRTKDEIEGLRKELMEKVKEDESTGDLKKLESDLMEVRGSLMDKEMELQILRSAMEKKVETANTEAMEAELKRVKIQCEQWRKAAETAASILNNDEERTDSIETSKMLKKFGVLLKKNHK

T2: ICR3, yeast two-hybrid fusion (Arabidopsis) (UniProt Q9LSS5)
T2 sequence: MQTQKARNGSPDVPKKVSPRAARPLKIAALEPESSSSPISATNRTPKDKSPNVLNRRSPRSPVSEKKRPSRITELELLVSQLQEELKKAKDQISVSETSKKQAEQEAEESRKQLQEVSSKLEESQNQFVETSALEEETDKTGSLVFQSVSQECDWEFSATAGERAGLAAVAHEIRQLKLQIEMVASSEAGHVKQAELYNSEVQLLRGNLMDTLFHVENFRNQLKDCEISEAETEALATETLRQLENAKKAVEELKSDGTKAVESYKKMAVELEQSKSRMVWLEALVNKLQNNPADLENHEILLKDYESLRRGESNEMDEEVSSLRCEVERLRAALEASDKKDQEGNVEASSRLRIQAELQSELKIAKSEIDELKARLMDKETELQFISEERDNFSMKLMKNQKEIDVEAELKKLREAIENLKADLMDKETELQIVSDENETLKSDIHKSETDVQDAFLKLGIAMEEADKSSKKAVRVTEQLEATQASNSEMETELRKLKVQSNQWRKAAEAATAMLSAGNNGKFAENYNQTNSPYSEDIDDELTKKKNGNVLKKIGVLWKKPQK

T3: ICR5, yeast two-hybrid fusion (Arabidopsis) (UniProt Q8VYU8)
T3 sequence: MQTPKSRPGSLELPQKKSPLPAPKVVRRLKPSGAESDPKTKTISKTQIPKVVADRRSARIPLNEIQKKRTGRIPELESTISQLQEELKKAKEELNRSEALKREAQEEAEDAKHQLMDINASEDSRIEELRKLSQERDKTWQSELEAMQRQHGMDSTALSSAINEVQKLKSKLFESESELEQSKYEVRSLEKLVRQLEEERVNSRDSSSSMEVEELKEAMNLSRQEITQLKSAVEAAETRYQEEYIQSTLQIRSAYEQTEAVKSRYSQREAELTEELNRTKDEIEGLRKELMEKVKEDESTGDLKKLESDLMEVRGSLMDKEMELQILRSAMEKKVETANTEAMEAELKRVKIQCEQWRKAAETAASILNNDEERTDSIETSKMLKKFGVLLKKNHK


Experiments:
[1] = biological target: ICR3-YC (interactor of constitutively active ROP 3 fused to the C-terminal half of YFP) (Arabidopsis) (UniProt Q9LSS5); assay: split reporter; BiFC with halves of YFP (YN, YC), transient expression in N. benthamiana leaf epidermis cells; confocal imaging, for some panels lambda scan 521-690 nm and linear unmixing of the YFP signal
[2] = biological target: T1, ICR5-YC (interactor of constitutively active ROP 5 fused to the C-terminal half of YFP) (Arabidopsis); assay: as above
YN-ROP11 = YN-ROP11 (UniProt O82481); assay: as above
[3] = biological target: ICR2, yeast two-hybrid fusion (pGAD-ICR2) (Arabidopsis) (UniProt Q9ZQC5); assay: two-hybrid; yeast two-hybrid in S. cerevisiae PJ69-4a; pGBT9.BS and pGAD.GH fusions; growth of four decimal dilutions on -Leu -Trp -His medium with 1 mM 3AT, 28°C
[4] = biological target: T2, ICR3, yeast two-hybrid fusion (Arabidopsis); assay: as above
[5] = biological target: T3, ICR5, yeast two-hybrid fusion (Arabidopsis); assay: as above
[6] = biological target: ROP11, yeast two-hybrid fusion (pGBT ROP11) (UniProt O82481); assay: as above
[7] = biological target: ROP2, yeast two-hybrid fusion (pGBT ROP2) (UniProt Q38919); assay: as above
[8] = biological target: ROP4, yeast two-hybrid fusion (pGBT ROP4) (UniProt Q38937); assay: as above
[9] = biological target: ROP9, yeast two-hybrid fusion (pGBT ROP9) (UniProt O82480); assay: as above

Row | binding [1] | binding [2] | binding (YN-ROP11) | binding [3] | binding [4] | binding [5] | binding [6] | binding [7] | binding [8] | binding [9] | Binder
1 | no binding | no binding | binds | – | – | – | – | – | – | – | ICR3-YC (interactor of constitutively active ROP 3 fused to the C-terminal half of YFP) (protein, UniProt Q9LSS5 1-564) MQTQKARNGSPDVPKKVSPRAARPLKIAALEPESSSSPISATNRTPKDKSPNVLNRRSPRSPVSEKKRPSRITELELLVSQLQEELKKAKDQISVSETSKKQAEQEAEESRKQLQEVSSKLEESQNQFVETSALEEETDKTGSLVFQSVSQECDWEFSATAGERAGLAAVAHEIRQLKLQIEMVASSEAGHVKQAELYNSEVQLLRGNLMDTLFHVENFRNQLKDCEISEAETEALATETLRQLENAKKAVEELKSDGTKAVESYKKMAVELEQSKSRMVWLEALVNKLQNNPADLENHEILLKDYESLRRGESNEMDEEVSSLRCEVERLRAALEASDKKDQEGNVEASSRLRIQAELQSELKIAKSEIDELKARLMDKETELQFISEERDNFSMKLMKNQKEIDVEAELKKLREAIENLKADLMDKETELQIVSDENETLKSDIHKSETDVQDAFLKLGIAMEEADKSSKKAVRVTEQLEATQASNSEMETELRKLKVQSNQWRKAAEAATAMLSAGNNGKFAENYNQTNSPYSEDIDDELTKKKNGNVLKKIGVLWKKPQK
2 | – | – | – | no binding | no binding | no binding | binds | binds | binds | binds | ICR2, yeast two-hybrid fusion (pGAD-ICR2) (protein, UniProt Q9ZQC5 1-583) MQTPKPRPGSLEVPQKKSPASTPKTARKLKTSESDPVSSPNTKIRTPKTQSPKVVADRRSPRTPVNEIQKKRTGKTPELASQISQLQEELKKAKEQLSASEALKKEAQDQAEETKQQLMEINASEDSRIDELRKLSQERDKAWQSELEAMQRQHAMDSAALSSTMNEVQKLKAQLSESENVENLRMELNETLSLVEKLRGELFDAKEGEAQAHEIVSGTEKQLEIANLTLEMLRSDGMKMSEACNSLTTELEQSKSEVRSLEQLVRQLEEEDEARGNANGDSSSVEELKEEINVARQEISQLKSAVEVTERRYHEEYIQSTLQIRTAYEQVDEVKSGYAQREAELGEELKKTKAERDSLHERLMDKEAKLRILVDENEILNSKIKEKEEVYLNLENSLNQNEPEDTGELKKLESDVMELRANLMDKEMELQSVMSQYESLRSEMETMQSEKNKAIDEALAKLGSLTEEADKSGKRAENATEQLGAAQVTNTELEAELRRLKVQCDQWRKAAEAAATMLSGGNNNNNSNGKYVERTGSLESPLRRRNVNMSPYMGETDDELSSPKKKNGSMLKKIGVLLKKSQK
